Assay results reported in PubChem BioAssay AID308 (DTP/NCI, 2004).
Inconclusive results and toxic doses are left out. Some entries of the source have several records that differ or are many. This list holds those alone. There may be further records. Values given together repeat one measurement in other runs, samples, wells, individuals or studies.

System: BDF1 mice, L1210 6-MP/6-TG resistant leukemia ip, survival T/C
Test: NCI In Vivo Anticancer Drug Screen. Data for tumor model L1210 Leukemia resistant to 6-MP and 6-Thioguanine; NSC 755, NSC 752 (intraperitoneal) in B6D2F1 (BDF1) mice
Details: endpoint: mean survival time, higher = longer survival
Procedure: The antitumor activity of compounds was measured in mice bearing transplantable tumors. Survival or tumor size were measured and the results are expressed as the measurement made in the treated group (T) divided by the measurement made in the vehicle treated control group (C). The tumor model used in this assay is L1210 Leukemia resistant to 6-MP and 6-Thioguanine; NSC 755, NSC 752 (intraperitoneal) in B6D2F1 (BDF1) mice

Row | SMILES | T/C (dose: 15.0 mg/kg/injection, schedule: Q01DX Z (ip), vehicle: carboxymethylcellulose (CMC)) | T/C (dose: 0.5 mg/kg/injection, schedule: Q01DX015 (ip), vehicle: saline)
1 | CC(=O)Nc1ccc2nc3ccc(NC(C)=O)cc3[n+](-c3ccccc3)c2c1 | 109 % of control and 162 % of control | 
2 | O=NN(CCCl)C(=O)NCCCl |  | 103 % of control, 108 % of control, 152 % of control
